Results on six molecules are retold here after US20250034274A1 (Daiichi Sankyo, published 2025).

For assay [1], the target named is T1, biotinylated human CD98 antigen (human, UniProt P08195 105-529, biotinylated with EZ-Link NHS-PEG4-Biotin (for ELISA)).
T1 construct: extracellular domain
T1 sequence (looked up): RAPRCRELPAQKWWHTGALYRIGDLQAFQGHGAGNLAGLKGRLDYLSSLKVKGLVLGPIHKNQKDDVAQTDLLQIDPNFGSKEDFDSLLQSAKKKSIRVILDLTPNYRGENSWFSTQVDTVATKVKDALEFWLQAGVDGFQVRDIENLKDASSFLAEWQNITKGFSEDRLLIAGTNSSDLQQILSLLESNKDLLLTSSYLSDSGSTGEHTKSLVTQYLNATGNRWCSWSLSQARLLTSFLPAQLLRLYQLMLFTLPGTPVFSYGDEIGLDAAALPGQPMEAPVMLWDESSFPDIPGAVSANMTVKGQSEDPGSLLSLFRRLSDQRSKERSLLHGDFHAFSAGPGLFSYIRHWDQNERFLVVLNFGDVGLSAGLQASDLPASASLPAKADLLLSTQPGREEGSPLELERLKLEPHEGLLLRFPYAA
Briefly: ELISA, immobilised biotinylated human CD98, anti-human IgG-HRP, chemiluminescence. A general note: ELISA stands for enzyme-linked immunosorbent assay.

Assay [2] addresses T1, biotinylated human CD98 antigen. Briefly: ELISA on human CD98, antibody with or without MMP1 cleavage.
The target is the same in assay [3]. Briefly: ELISA, immobilised biotinylated human CD98, anti-human IgG-HRP, chemiluminescence; without MMP1.
Assay [4] shares this target. Briefly: ELISA, immobilised biotinylated human CD98, anti-human IgG-HRP, chemiluminescence; antibody pre-incubated with MMP1.
The target is the same in assay [5]. Described as above. This is another data set of the same source.
For assay [6] the target is unchanged. Briefly: ELISA, immobilised biotinylated human CD98, anti-human IgG-HRP, chemiluminescence; without MMP1. This is another data set of the same source.
Assay [7] shares this target. Briefly: ELISA, immobilised biotinylated human CD98, anti-human IgG-HRP, chemiluminescence; antibody pre-incubated with uPA.
Assay [8] has the same target. Briefly: ELISA, immobilised biotinylated human CD98, anti-human IgG-HRP, chemiluminescence; antibody pre-incubated with CAPN1.
Assay [9] has the same target. Briefly: ELISA, immobilised biotinylated human CD98, anti-human IgG-HRP, chemiluminescence; without protease.
For assay [10] the target is unchanged. Briefly: ELISA, immobilised biotinylated human CD98, anti-human IgG-HRP, chemiluminescence; antibody pre-incubated with uPA. The source holds these as a separate data set.
For assay [11] the target is unchanged. Briefly: ELISA, immobilised biotinylated human CD98, anti-human IgG-HRP, chemiluminescence; antibody pre-incubated with CAPN1. This is another data set of the same source.
Assay [12] has the same target. Briefly: ELISA, immobilised biotinylated human CD98, anti-human IgG-HRP, chemiluminescence; without protease. The source holds these as a separate data set.

B1: anti-CD98 antibody hM23H1L1 (antibody)
heavy: QVQLVQSGAEVKKPGASVKVSCKASGYAFSNYLIEWVRQAPGQGLEWMGVINPGSGVTNYNEKFKGRVTITADTSTSTAYMELSSLRSEDTAVYYCARAEAWFAYWGQGTLVTVSSASTKGPSVFPLAPSSKSTSGGTAALGCLVKDYFPEPVTVSWNSGALTSGVHTFPAVLQSSGLYSLSSVVTVPSSSLGTQTYICNVNHKPSNTKVDKRV[human IgG1 Fc not shown]
light: DIVMTQSPDSLAVSLGERATINCKSSQSLLYSSNQKNYLAWYQQKPGQPPKLLIYWASTRESGVPDRFSGSGSGTDFTLTISSLQAEDVAVYYCQRYYGYPWTFGQGTKVEIKRTVAAPSVFIFPPSDEQLKSGTASVVCLLNNFYPREAKVQWKVDNALQSGNSQESVTEQDSKDSTYSLSSTLTLSKADYEKHKVYACEVTHQGLSSPVTKSFNRGEC
notes: Known antibody of WO 2015/146132
The term EC50 (read off the curve) denotes the concentration that produces a half-maximal response. Consider B1, for which the “EC50 (read off the curve)” value in assay [1] was roughly 0.8 nM.

B2: anti-CD98 masked antibody MhM1008 (antibody)
heavy: QVQLVQSGAEVKKPGASVKVSCKASGYAFSNYLIEWVRQAPGQGLEWMGVINPGSGVTNYNEKFKGRVTITADTSTSTAYMELSSLRSEDTAVYYCARAEAWFAYWGQGTLVTVSSASTKGPSVFPLAPSSKSTSGGTAALGCLVKDYFPEPVTVSWNSGALTSGVHTFPAVLQSSGLYSLSSVVTVPSSSLGTQTYICNVNHKPSNTKVDKRV[human IgG1 Fc not shown]
light: GENMWNDLDLVPLGILGSGGGGSVLVPMAMMASGGSDIVMTQSPDSLAVSLGERATINCKSSQSLLYSSNQKNYLAWYQQKPGQPPKLLIYWASTRESGVPDRFSGSGSGTDFTLTISSLQAEDVAVYYCQRYYGYPWTFGQGTKVEIKRTVAAPSVFIFPPSDEQLKSGTASVVCLLNNFYPREAKVQWKVDNALQSGNSQESVTEQDSKDSTYSLSSTLTLSKADYEKHKVYACEVTHQGLSSPVTKSFNRGEC
notes: Mimotope from Linear 15mer lib and MMP cleavable linker on the light chain
For the molecule B2, in assay [2], the “EC50 ratio of binding (under the condition without the addition of MMP1/under the condition with the addition of MMP1)” value was 132. Moreover, the “EC50 (read off the curve)” value in assay [3] is roughly 30 nM; in [4], roughly 0.2 nM.

B3: MhM1013-M1 (antibody)
heavy: QVQLVQSGAEVKKPGASVKVSCKASGAAFSNYLIEWVRQAPGQGLEWMGVINPGSGVTNYNEKFKGRVTITADTSTSTAYMELSSLRSEDTAVYYCARAEAWFAYWGQGTLVTVSSASTKGPSVFPLAPSSKSTSGGTAALGCLVKDYFPEPVTVSWNSGALTSGVHTFPAVLQSSGLYSLSSVVTVPSSSLGTQTYICNVNHKPSNTKVDKRV[human IgG1 Fc not shown]
light: GNFYHQYPWPLEILGSGSGGGGSVLVPMAMMASGGSDIVMTQSPDSLAVSLGERATINCKSSQSLLYSSNQKNYLAWYQQKPGQPPKLLIYWASTRESGVPDRFSGSGSGTDFTLTISSLQAEDVAVYYCQRYYGYPWTFGQGTKVEIKRTVAAPSVFIFPPSDEQLKSGTASVVCLLNNFYPREAKVQWKVDNALQSGNSQESVTEQDSKDSTYSLSSTLTLSKADYEKHKVYACEVTHQGLSSPVTKSFNRGEC
notes: Heavy chain of hM23-M1 and light chain of MhM1013
With B3, in assay [2], the “EC50 ratio of binding intensity (under the condition without the addition of MMP1/under the condition with the addition of MMP1)” value is 552. In addition, the “EC50 (read off the curve)” value in assay [5] was roughly 0.5 nM.

B4: anti-CD98 masked antibody MhM1013 (antibody)
heavy: QVQLVQSGAEVKKPGASVKVSCKASGYAFSNYLIEWVRQAPGQGLEWMGVINPGSGVTNYNEKFKGRVTITADTSTSTAYMELSSLRSEDTAVYYCARAEAWFAYWGQGTLVTVSSASTKGPSVFPLAPSSKSTSGGTAALGCLVKDYFPEPVTVSWNSGALTSGVHTFPAVLQSSGLYSLSSVVTVPSSSLGTQTYICNVNHKPSNTKVDKRV[human IgG1 Fc not shown]
light: GNFYHQYPWPLEILGSGSGGGGSVLVPMAMMASGGSDIVMTQSPDSLAVSLGERATINCKSSQSLLYSSNQKNYLAWYQQKPGQPPKLLIYWASTRESGVPDRFSGSGSGTDFTLTISSLQAEDVAVYYCQRYYGYPWTFGQGTKVEIKRTVAAPSVFIFPPSDEQLKSGTASVVCLLNNFYPREAKVQWKVDNALQSGNSQESVTEQDSKDSTYSLSSTLTLSKADYEKHKVYACEVTHQGLSSPVTKSFNRGEC
notes: Mimotope from ZPZP lib and MMP cleavable linker on the light chain
Consider B4, for which, in [2], the “EC50 ratio of binding (under the condition without the addition of MMP1/under the condition with the addition of MMP1)” value stood at 326 and the “EC50 ratio of binding intensity (under the condition without the addition of MMP1/under the condition with the addition of MMP1)” value was found to be 239. Besides, the concentration giving a half-maximal response (EC50 (read off the curve)) in [6] was roughly 100 nM. In assay [5], the “EC50 (read off the curve)” value was roughly 0.5 nM.

B5: MhM1020-M1 (antibody)
heavy: QVQLVQSGAEVKKPGASVKVSCKASGAAFSNYLIEWVRQAPGQGLEWMGVINPGSGVTNYNEKFKGRVTITADTSTSTAYMELSSLRSEDTAVYYCARAEAWFAYWGQGTLVTVSSASTKGPSVFPLAPSSKSTSGGTAALGCLVKDYFPEPVTVSWNSGALTSGVHTFPAVLQSSGLYSLSSVVTVPSSSLGTQTYICNVNHKPSNTKVDKRV[human IgG1 Fc not shown]
light: GNFYHQYPWPLEILGSGGGGSGGGGSGGGPLFAAPGGSDIVMTQSPDSLAVSLGERATINCKSSQSLLYSSNQKNYLAWYQQKPGQPPKLLIYWASTRESGVPDRFSGSGSGTDFTLTISSLQAEDVAVYYCQRYYGYPWTFGQGTKVEIKRTVAAPSVFIFPPSDEQLKSGTASVVCLLNNFYPREAKVQWKVDNALQSGNSQESVTEQDSKDSTYSLSSTLTLSKADYEKHKVYACEVTHQGLSSPVTKSFNRGEC
notes: Anti-CD98 masked antibody; CAPN substrate
In the case of B5, the “EC50 (read off the curve)” value in assay [7] is roughly 100 nM; in assay [8] it was roughly 3 nM; in [9], roughly 100 nM.

B6: MhM1019-M1 (antibody)
heavy: QVQLVQSGAEVKKPGASVKVSCKASGAAFSNYLIEWVRQAPGQGLEWMGVINPGSGVTNYNEKFKGRVTITADTSTSTAYMELSSLRSEDTAVYYCARAEAWFAYWGQGTLVTVSSASTKGPSVFPLAPSSKSTSGGTAALGCLVKDYFPEPVTVSWNSGALTSGVHTFPAVLQSSGLYSLSSVVTVPSSSLGTQTYICNVNHKPSNTKVDKRV[human IgG1 Fc not shown]
light: GNFYHQYPWPLEILGSGGGGSGRSANAGGSGGGGSGGSDIVMTQSPDSLAVSLGERATINCKSSQSLLYSSNQKNYLAWYQQKPGQPPKLLIYWASTRESGVPDRFSGSGSGTDFTLTISSLQAEDVAVYYCQRYYGYPWTFGQGTKVEIKRTVAAPSVFIFPPSDEQLKSGTASVVCLLNNFYPREAKVQWKVDNALQSGNSQESVTEQDSKDSTYSLSSTLTLSKADYEKHKVYACEVTHQGLSSPVTKSFNRGEC
notes: Anti-CD98 masked antibody; uPA substrate only
With B6, the “EC50 (read off the curve)” value is roughly 0.6 nM in [10], 70 to 80 nM in assay [11] and 70 to 80 nM in [12].
